{"source": "PubChem BioAssay AID651820", "about": "(National Center for Advancing Translational Sciences (NCATS), 2012)", "note": "Screen size: about 340,000 compounds; about 12,000 (3.5%) were called active. This list was built around the results that the source calls inconclusive (neither active nor inactive); the mix of calls is not that of the screen. The call rests on the fitted dose curve; in most records, active means well fitted inhibition curve with a large enough effect; inconclusive means small, poorly fitted or top-dose-only effect, or another doubt; inactive means no such curve, though single readings can be large or run the other way. No potency is given beside an inconclusive call; the fits are too rough. Potency means the concentration at half of the fitted maximal effect; tags describe the fitted curve by direction and shape."}
{"assay": "qHTS Assay for Inhibitors of Hepatitis C Virus (HCV)", "conditions": "Huh7.5.1 HCVcc-Cre (HCVcc is cell-culture hepatitis C virus) infection, luciferase reporter, 44 h; series mostly up to 41.8 µM", "method_in_brief": "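HCVcc-Cre virus at an moi near 0.5 was added right after compound to cells cultured 4 h from seeding (1,000 cells/well). Luciferase activity was determined 44 h later, 15 min after substrate addition at RT.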"}
{"compound": "ON=C1c2cc(OCCN3CCCCC3)ccc2-c2ccc(OCCN3CCCCC3)cc21", "Potency": "active: 3.16 µM"}
{"compound": "Cc1nc2c(o1)C(=O)c1ccccc1C2=Nc1ccccc1", "Potency": "active: 2.82 µM"}
{"compound": "CCOCCCn1c(=S)[nH]c2cc(C(=O)N3CCN(C4CCCCC4)CC3)ccc2c1=O", "Potency": "inconclusive [inhibitor, partial curve]"}
{"compound": "CCOC(=O)c1c(NC(NC(=O)CF)C(Cl)(Cl)Cl)sc2c1CCCC2", "note": "(stereo unspecified)", "Potency": "inconclusive [inhibitor, full curve]"}
{"compound": "COc1ccc(S(=O)(=O)N2CCCCC2)cc1NCC(=O)Nc1ccc(C)cc1", "Potency": "inconclusive [inhibitor, partial curve]"}
{"compound": "CC(C)CNC(=O)N1c2ccccc2Sc2ccccc21", "Potency": "inactive"}
{"compound": "N#Cc1cccc(NC(=O)C2CCCN(C(=O)c3ccc(Cl)cc3)C2)c1", "note": "(stereo unspecified)", "Potency": "inconclusive [inhibitor, single point]"}
{"compound": "CCOC(=O)C1CCN(S(=O)(=O)Cc2ccc(Cl)cc2)CC1", "Potency": "inconclusive [inhibitor, single point]"}
{"compound": "CCCOc1c(Cl)cc(C(=O)Nc2ccc3c(c2)OCO3)cc1OCC", "Potency": "active: 12.6 µM"}
{"compound": "CCOc1ccc(CNC(=O)Nc2ccccc2)cc1", "Potency": "inconclusive [inhibitor, partial curve, poor fit]"}
{"compound": "COC(=O)c1c(C)[nH]c(C(=O)COC(=O)c2c(C)noc2C)c1C", "Potency": "inconclusive [inhibitor, single point]"}
{"compound": "COc1ccc(OC)c(C(=O)NC(CC(N)=O)c2ccc(N3CCC(Cc4ccccc4)CC3)c([N+](=O)[O-])c2)c1", "note": "(stereo unspecified)", "Potency": "inactive"}
{"compound": "COc1ccc(NS(=O)(=O)c2ccc(C(=O)N3CCC(C)CC3)cc2)cc1", "Potency": "inconclusive [inhibitor, single point]"}
{"compound": "Cn1c(=O)c2c(SCC(=O)N3CCCCC3)nc(-c3ccccc3F)nc2n(C)c1=O", "Potency": "inconclusive [inhibitor, single point]"}
{"compound": "OCC1(Cc2ccc(F)cc2)CCCN(CCCC(F)(F)F)C1", "note": "(stereo unspecified)", "Potency": "inactive"}
{"compound": "COc1ccc(C(=O)COC(=O)c2sc(C)nc2C)cc1Cl", "Potency": "inconclusive [inhibitor, partial curve]"}
{"compound": "COc1cccc(C2=NN(C(=O)c3cccs3)C(O)(C(F)(F)F)C2)c1", "note": "(stereo unspecified)", "Potency": "inconclusive [inhibitor, single point]"}
{"compound": "CN(c1ccccc1)S(=O)(=O)c1cccc(NC(=O)Cc2ccc(Cl)cc2)c1", "Potency": "inconclusive [inhibitor, single point]"}
{"compound": "O=C(Nc1ccc(C(=O)OC2CCCCC2)cc1)c1ccncc1", "Potency": "inconclusive [inhibitor, partial curve]"}
{"compound": "CCCCCc1nnc(NC(=O)c2ccc(N3CCCC3=O)cc2)s1", "Potency": "inactive"}
{"compound": "O=C(Cc1cccc(NC(=O)C2CCCN(C(=O)C3CC3)C2)c1)Nc1cccc(C(=O)N2CCCCC2)c1", "note": "(stereo unspecified)", "Potency": "inconclusive [inhibitor, single point]"}
{"compound": "C=C(C)CSc1nc2sc3c(c2c(=O)n1C1CCCCC1)CCN(C)C3", "Potency": "inconclusive [inhibitor, partial curve]"}
{"compound": "COC(=O)/C(=C/c1cccc([N+](=O)[O-])c1)NC(=O)c1ccc(OC)cc1", "Potency": "inactive"}
{"compound": "CN1CCc2nc(SCc3cccc(Br)c3)c(C#N)cc2C1", "Potency": "inconclusive [inhibitor, partial curve]"}
{"compound": "Oc1ccc2ccccc2c1/C=N/Nc1ccccc1", "Potency": "inactive"}
{"compound": "Cc1cc(C)cc(NC(=O)NCc2c(-c3ccccc3)noc2C)c1", "Potency": "inconclusive [inhibitor, full curve, poor fit]"}
{"compound": "O=C1OCCN1C(=O)[C@H]1[C@H](c2ccc(F)cc2)C(c2cccc(Cl)c2)=NN1c1ccc(Br)cc1", "Potency": "inconclusive [inhibitor, single point]"}
{"compound": "O=C(CSc1nnc(-c2ccncc2)o1)N1CCCCCC1", "Potency": "inactive"}
{"compound": "O=C(NCCC1=CCCCC1)c1ccc(-n2cncn2)c([N+](=O)[O-])c1", "Potency": "inconclusive [inhibitor, single point]"}
{"compound": "O=C(Nc1ccc(Cl)cc1)OCCn1nnnc1C(c1ccccc1Cl)N1CCOCC1", "note": "(stereo unspecified)", "Potency": "inconclusive [inhibitor, single point]"}
{"compound": "Cc1cccnc1NC(=O)CNC(=O)c1ccccc1", "Potency": "inconclusive [inhibitor, single point]"}
{"compound": "CN(C)c1ccc2nc3c(=O)[nH]c(=O)nc-3n(CC(O)C(O)C(O)CO)c2c1", "note": "(stereo unspecified)", "Potency": "inactive"}
{"compound": "CCN(C[C@H]1N[C@@](C)(C(=O)OC)[C@H]2C(=O)N(C)C(=O)[C@@H]12)C(=O)Nc1ccccc1", "Potency": "inactive"}
{"compound": "O=C(c1ccccc1)c1ccc(OCCCN2CCCCC2)cc1", "Potency": "inconclusive [inhibitor, single point]"}
{"compound": "OC(CNCc1ccccc1)COc1ccccc1", "note": "(stereo unspecified)", "Potency": "inactive"}
{"compound": "O=C(CNC(=O)c1ccco1)NNC(=O)c1cccc(Cl)c1", "Potency": "inactive"}
{"compound": "O=S(=O)(Nc1cccc(-c2nnco2)c1)c1ccc(Cl)cc1", "Potency": "inactive"}
{"compound": "CCNC(=S)N/N=C(\\C)c1ccc(N2CCOCC2)cc1", "Potency": "inconclusive [inhibitor, single point]"}
{"compound": "CC1CCN(S(=O)(=O)c2cn(CC(=O)Nc3ccc(C#N)cc3)cn2)CC1", "Potency": "inactive"}
{"compound": "CSCCC(NC(=O)c1ccco1)C(=O)N1CCCC(C(F)(F)F)C1", "note": "(stereo unspecified)", "Potency": "inactive"}
{"compound": "COc1cc2cc(CN(Cc3cccs3)C(=S)Nc3ccccc3)c(=O)[nH]c2cc1OC", "Potency": "inconclusive [inhibitor, single point]"}
{"compound": "C=CCc1cc(/C=N/NC(=O)CSc2nnc(CCCc3ccc(OC)cc3)o2)cc(OC)c1O", "Potency": "inconclusive [inhibitor, single point]"}
{"compound": "Cc1nnc(SCC(=O)NCc2ccc3c(c2)OCO3)[nH]c1=O", "Potency": "inactive"}
{"compound": "COc1ccccc1N1CCN(CCOc2c(OC)cccc2OC)CC1", "Potency": "inconclusive [inhibitor, full curve, poor fit]"}
{"compound": "C#CCN(C(=O)c1ccc(OC2CCN(Cc3ccccn3)CC2)cc1)C1CCCCC1", "Potency": "inactive"}
{"compound": "C/C(CC(=O)Nc1ccc(N(C)C)cc1)=N\\NC(=O)c1ccc(Cl)cc1", "Potency": "inactive"}
